Measurements taken from PMC4336329 (PLoS ONE, 2015).
Screen size: about 310,000 compounds; about 14,000 (4.5%) showed an effect of 50% or more. The effect is printed as a negative number. Some of the results follow.

biological target: human ether-à-go-go-related gene (hERG) potassium channel (human, UniProt Q12809); experiment: primary screen, population patch clamp on CHO cells stably expressing hERG
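Also: peak tail current of the secondary pulse compared with the same well before compound.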

Sequence of human ether-à-go-go-related gene (hERG) potassium channel (Q12809 whole entry, looked up): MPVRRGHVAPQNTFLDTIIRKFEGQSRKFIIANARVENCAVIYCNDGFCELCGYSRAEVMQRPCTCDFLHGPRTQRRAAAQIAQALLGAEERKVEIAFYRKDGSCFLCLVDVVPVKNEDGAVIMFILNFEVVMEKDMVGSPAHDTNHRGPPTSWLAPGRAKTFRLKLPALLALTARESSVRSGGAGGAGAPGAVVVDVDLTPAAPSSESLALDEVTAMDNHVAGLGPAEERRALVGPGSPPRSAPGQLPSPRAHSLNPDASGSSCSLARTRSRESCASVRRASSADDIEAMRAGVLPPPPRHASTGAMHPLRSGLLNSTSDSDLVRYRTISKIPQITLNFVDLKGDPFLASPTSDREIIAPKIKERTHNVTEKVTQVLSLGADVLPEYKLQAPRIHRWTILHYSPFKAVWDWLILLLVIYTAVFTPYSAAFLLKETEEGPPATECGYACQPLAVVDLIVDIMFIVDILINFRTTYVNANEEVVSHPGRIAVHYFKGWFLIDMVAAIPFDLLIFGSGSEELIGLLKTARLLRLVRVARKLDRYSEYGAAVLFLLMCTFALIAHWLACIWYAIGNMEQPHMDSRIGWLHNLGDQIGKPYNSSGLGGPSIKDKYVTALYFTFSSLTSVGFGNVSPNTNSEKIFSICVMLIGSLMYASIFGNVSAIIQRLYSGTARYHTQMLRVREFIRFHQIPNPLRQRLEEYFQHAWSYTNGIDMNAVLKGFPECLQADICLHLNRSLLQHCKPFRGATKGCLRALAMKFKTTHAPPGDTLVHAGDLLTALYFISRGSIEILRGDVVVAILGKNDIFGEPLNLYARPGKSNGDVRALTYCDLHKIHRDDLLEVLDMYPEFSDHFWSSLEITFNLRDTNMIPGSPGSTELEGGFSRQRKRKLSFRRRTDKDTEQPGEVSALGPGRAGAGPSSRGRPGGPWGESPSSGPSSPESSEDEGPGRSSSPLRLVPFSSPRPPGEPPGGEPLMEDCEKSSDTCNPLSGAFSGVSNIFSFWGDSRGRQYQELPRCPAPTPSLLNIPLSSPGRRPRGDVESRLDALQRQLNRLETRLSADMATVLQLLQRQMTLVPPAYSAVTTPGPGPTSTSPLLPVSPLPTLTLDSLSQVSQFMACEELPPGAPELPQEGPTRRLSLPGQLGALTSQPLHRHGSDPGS

Compound | hERG current change (%, negative = inhibition) at 10uM
COc1cccc(NC(=S)N2CCc3cc(OC)c(OC)cc3C2)c1 | 1.23%
CCN(CC)CCNC(=O)C1c2ccccc2Oc2ccccc21.Cl | 6.6%
CCc1cccc(NC(=S)N(CCCOC(C)C)C2CCN(C(C)=O)CC2)c1 | -6.1%
O=C(CSCc1cccc(Br)c1)NC1CC1 | -6.25%
COc1ccccc1C(=O)O[C@H]1[C@H](Cc2ccccc2)NS(=O)(=O)[C@H]2C[C@@H]3C=C[C@]12O3 | 2.42%
CCN(CC)c1ccc(C(=O)OCC(=O)N(C)Cc2ccccc2)cc1 | -13.9%
Brc1ccc(C2=Nn3c(nnc3-c3n[nH]c4c3CCC4)SC2)cc1 | 4.63%
Cc1ccccc1NC(=O)C(C)OC(=O)CCC(=O)N(CC(C)C)c1c(N)n(CC(C)C)c(=O)[nH]c1=O (stereo not shown) | -11.2%
CNS(=O)(=O)c1ccc(NS(=O)(=O)c2ccccc2F)cc1 | 21.9%
O=C1CC(c2ccccc2)CC(=NCCO)/C1=C(\O)CCCN1C(=O)c2ccccc2C1=O (stereo not shown) | -71.9%
CCOC(=O)c1sc(NC(=O)C(CC)OC(=O)c2ccco2)nc1C (stereo not shown) | -24.2%
CCn1c(=O)c([N+](=O)[O-])c(NCC(O)c2ccccc2)c2ccccc21 (stereo not shown) | -4.1%
Cc1ccc(NC(=O)c2cc(C)nc3ccccc23)c(C)c1 | -0.323%
Cc1cccc(NC(=O)c2ccc(NC(=O)c3ccccc3Br)cc2)c1 | 12%
CC1CCCC(C)N1CCNC(=O)Nc1ccc(Cl)cc1 (stereo not shown) | -36.8%
Cc1cccc(NS(=O)(=O)c2ccc(C(=O)N3CC(C)OC(C)C3)cc2)c1C (stereo not shown) | -1.13%
CSc1nnc(-c2cccs2)n1C | -4.11%
COc1ccc(Cc2nc3ccc(C(=O)N4CCC(N(C)C)C4)cc3o2)cc1 (stereo not shown) | 11%
CC(=O)c1ccc(OCc2cc(C(=O)N3CCC(c4ccncc4)CC3)no2)cc1 | -28%
CCc1ccnc(NS(=O)(=O)c2ccc3c(c2)OCCO3)c1 | 3.52%
NC(=O)NCCCC(=O)NCC(c1ccccc1Cl)c1c[nH]c2ccccc12 (stereo not shown) | 18.9%
COc1ccc(CCC(=O)NNC(=O)Nc2ccccc2Cl)cc1 | 4.25%
Cc1cccc(OCCCc2c(C)n[nH]c2C)c1 | 3.95%
COc1cccc(NC(=O)Cc2cccs2)c1 | 14.4%
Cc1cccc(CSc2nc3c(cc2C#N)CN(C)CC3)c1 | -71.2%
O=C(O)CC1CCCC(c2ccccc2)C1=O (stereo not shown) | -12.3%
CC1=C(C(=O)OCCCCCl)C(c2cc3c(cc2Br)OCO3)NC(=O)N1 (stereo not shown) | 36.7%
Cc1ccc2cc(C(c3nnnn3C3CCCC3)N(Cc3cccnc3)Cc3ccco3)c(=O)[nH]c2c1 (stereo not shown) | -77.8%

Compound | hERG current change (%, negative = inhibition) at 10uM
Cc1c(NC(=O)CN2c3cccc4cccc(c34)S2(=O)=O)c(=O)n(-c2ccccc2)n1C | 11.6%
CC(=O)c1ccc(NC(=O)C(C)N(C)CC(=O)Nc2ccc(N3CCOCC3)cc2)cc1 (stereo not shown) | -0.901%
O=C(N/N=C/c1c(O)n(-c2ccccc2)c(=O)[nH]c1=O)c1ccncc1 | 16.2%
N/C(=N\OC(=O)C(c1ccccc1)c1ccccc1)c1cccnc1 | -12.8%
O=C(NCCN1CCOCC1)c1ccc2c(c1)N(Cc1ccccc1)C(=O)CS2 | 2.4%
C[C@H]1[C@H](C)CC[C@]2(C)CC[C@]3(C)C(=CC(=O)C4[C@@]5(C)CC[C@H](O)C(C)(C)C5CC[C@]43C)[C@H]12 (stereo partly shown) | 25.5%
Nc1ccc(S(=O)(=O)NCC(=O)OCCOc2ccccc2)cc1[N+](=O)[O-] | 3.37%
OCC1(Cc2ccccc2F)CCCN(CCc2ccccc2)C1 (stereo not shown) | -74.8%
CCN1C(Nc2ccccc2)=NC[C@@H]1Cc1ccccc1 | -26%
CC1CN(Cc2ccc(Cl)cc2Cl)CC(C)O1 (stereo not shown) | 14.6%
COC(=O)CN1C(=O)[C@H]2[C@@H](c3ccc(C)o3)N3C(=O)CN(CCO)C(=O)[C@@]3(C)[C@H]2C1=O | -2.13%
COC(=O)COc1ccccc1C(=O)Nc1ccc(OC)cc1 | -12%
NS(=O)(=O)c1ccc(NC(=S)Nc2ccc(C(=O)N3CCCCC3)cc2)cc1 | 8.99%
Fc1ccccc1CNc1ccc(Cl)cc1 | -8.14%
CCOc1ccccc1NC(=O)CCCNC(=O)c1ccc(Cl)cc1 | -1.75%
Cc1c(C(=O)N2CCc3ccccc3C2)oc2ccccc12 | -28%
COc1ccc(S(=O)(=O)NCC(c2ccco2)N2CCc3ccccc3C2)cc1 (stereo not shown) | -1.47%
CCOc1ccc2c(c1)s/c(=N\S(=O)(=O)c1ccc(OC)cc1)n2C(F)F | 9.7%
Cc1c(NC(=O)Nc2ccc3c(c2)OCO3)cccc1[N+](=O)[O-] | 17.3%
O=C(O)CCn1cc(/C=N/O)c(-c2cccc([N+](=O)[O-])c2)n1 | 9.03%
CC(NC(=O)CCCc1c[nH]c2ccccc12)c1ccc(F)cc1 (stereo not shown) | 9.53%
COc1cc(C(=O)N=C2SC3CS(=O)(=O)CC3N2c2ccccc2)cc(OC)c1OC (stereo not shown) | 21%
CCOc1ccccc1N1CCN(C(=S)NC(=O)C23CC4CC(CC(C4)C2)C3)CC1 | 3.44%
O=c1c2c(nc3n1CCS3)c1cc(F)ccc1n2Cc1cc(=O)n2cc(Cl)ccc2n1 | -10.7%
O=C(O)c1cc(N/N=C/c2c[nH]c3ccccc23)ccc1Cl | 10.3%
CCCCCOc1ccc(CSCCNC(=S)Nc2ccccc2)cc1 | -5.94%
C#CCOCCOCCOCCNc1nc(N2CCN(C(=O)[C@H](CCC(=O)O)n3cc(C(N)CC(C)C)nn3)CC2)nc(N2CCN(C(=O)[C@H](CCC(=O)O)n3cc(C(N)CC(C)C)nn3)CC2)n1.Cl (stereo partly shown) | 20.6%
